Data taken from paper PMC6919601, “Identification of Plasmodium dipeptidyl aminopeptidase allosteric inhibitors by high throughput screening” (PLoS ONE, 2019).
Hit rate of the full screen: of about 110,000 compounds, about 230 (0.21%) showed an effect of 50% or more. This is one part of the list.

target: DPAP1 (Plasmodium falciparum, UniProt Q8IIJ9); assay: primary screen, percent inhibition; read by cleavage of a fluorogenic dipeptide substrate; higher = more effect of the substance; design: species or system P. falciparum D10 trophozoite lysates; single well
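Also: 30 min substrate incubation versus DMSO and 10 µM JCP410 controls.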

Sequence of DPAP1 (Q8IIJ9 whole entry, looked up): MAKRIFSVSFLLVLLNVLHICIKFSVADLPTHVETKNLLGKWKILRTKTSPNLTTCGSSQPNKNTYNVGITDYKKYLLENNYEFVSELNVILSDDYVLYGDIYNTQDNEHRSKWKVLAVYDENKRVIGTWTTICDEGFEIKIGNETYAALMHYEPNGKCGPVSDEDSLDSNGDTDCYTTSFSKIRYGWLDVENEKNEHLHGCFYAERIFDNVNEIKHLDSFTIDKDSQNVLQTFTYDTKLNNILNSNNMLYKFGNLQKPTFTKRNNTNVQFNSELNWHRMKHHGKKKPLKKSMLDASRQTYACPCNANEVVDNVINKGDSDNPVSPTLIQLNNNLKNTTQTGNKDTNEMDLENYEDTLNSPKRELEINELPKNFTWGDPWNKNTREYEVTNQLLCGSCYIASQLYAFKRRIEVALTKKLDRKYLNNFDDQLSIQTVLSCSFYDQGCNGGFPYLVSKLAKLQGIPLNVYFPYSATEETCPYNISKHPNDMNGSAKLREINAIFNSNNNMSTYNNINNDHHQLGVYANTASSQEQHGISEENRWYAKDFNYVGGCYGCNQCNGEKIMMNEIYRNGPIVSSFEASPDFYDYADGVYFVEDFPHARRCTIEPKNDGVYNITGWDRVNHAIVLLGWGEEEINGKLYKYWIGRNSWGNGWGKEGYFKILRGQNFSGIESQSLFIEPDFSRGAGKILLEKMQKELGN

Row | Compound | % Inhibition @ 10 uM [%]
1 | CCC(C)NC(=O)c1ccccc1NC(=O)CN(c1ccc(Br)cc1)S(C)(=O)=O (stereo not shown) | -16
2 | O=S(=O)(Cc1nc2ccccc2[nH]1)Cc1nc2ccccc2[nH]1 | -0.424
3 | Cc1ccc(NC(=O)c2cccnc2)c(C)c1 | 0.843
4 | Cc1c(/C=C2\SC(=O)NC2=O)cc(-c2ccccc2)n1-c1ccccc1 | 2.38
5 | COc1cc(OC)cc(C(=O)Nc2cc(C)ccc2C)c1 | 2.82
6 | CC(=O)N1CCc2c(sc3c2c(=O)n(CCc2ccccc2)c(=O)n3Cc2ccccc2)C1 | 6.66
7 | CCN(CC)CC(O)COc1cc([N+](=O)[O-])ccc1N1CCCC1 (stereo not shown) | 3.54
8 | O=C(NCc1cc(Br)cc(Br)c1O)c1ccccc1 | -2.66
9 | N#CC1=C(N)N(c2nc[nH]n2)C2=C(C(=O)CC(c3ccccc3)C2)C1c1ccc(Br)cc1 (stereo not shown) | -2.77
10 | N#CC1=C2N=C(N)c3c(sc4c3C3CCN4CC3)N2C2=C(C(=O)CCC2)C1c1ccccc1F (stereo not shown) | -4.73
11 | O=C1NC(c2ccc(OC3CSC3)cc2)Nc2ccccc21 (stereo not shown) | -0.865
12 | COCc1nc2ccccc2n1CC(C)C | -4.07
13 | CN1CCN(C(=O)N[C@@H](Cc2ccccc2)C(=O)N[C@H](/C=C/S(=O)(=O)c2ccccc2)CCc2ccccc2)CC1 | -2.35
14 | CC(C)(C)C1CCC(N2CCN(C/C=C/c3ccccc3)CC2)CC1 (stereo not shown) | 0.472
15 | O=C(NCc1ccccc1F)Nc1cccc(Cl)c1 | 0.512
16 | O=C(N[C@@H](Cc1ccc2ccccc2c1)C(=O)N[C@@H](CCc1ccccc1)C(=O)C[N+](=O)[O-])C1CCNCC1 | 0.744
17 | COc1ccc(NC(=O)C2CCC(=O)N2C(=O)OCc2ccccc2)cc1 (stereo not shown) | 0.24
18 | COc1ccc(-c2nc3ccccn3c2C=O)cc1 | -0.703
19 | Cc1cc(NS(=O)(=O)c2ccc(NC(=O)c3ccco3)cc2)no1 | -0.759
20 | CC(=O)N1CCC(=O)N(Cc2ccccc2)c2ccccc21 | -6.43
21 | CC1=NN(c2nc3ccccc3[nH]2)C(=O)C1CCC(C)C (stereo not shown) | -3.33

Row | Compound | % Inhibition @ 10 uM [%]
22 | Cc1ccc(C)c(CN2CCCN(C(=O)Cn3ncc4c3-c3ccccc3OC4)C2)c1 | -0.692
23 | CCCn1c(=O)c(C(=O)Nc2nc(-c3ccc(Br)cc3)cs2)c(O)c2ccccc21 | -4.91
24 | CC(C)Cn1c(CN2CCN(C)CC2)nc2c1c(=O)n(C)c(=O)n2C | -5.1
25 | COC(=O)c1cccnc1-n1c(=O)c2cccnc2n(Cc2cccc(OC)c2)c1=O | 2.83
26 | CCCN1CCN(C(=O)CCc2c(C)n(CC)c3cc(-c4ccccc4OC)nn3c2=O)CC1 | -6.09
27 | CCN(CC)CCN(C)Cc1cccc(O)c1 | -1.5
28 | O=C(O)/C(Cl)=C(Cl)/C=N/c1nc[nH]n1 | 4.95
29 | OC12CCCCC1C(c1cccc(Oc3ccc(Cl)cc3)c1)NCC2 (stereo not shown) | -5.48
30 | Cc1cc(N2CCN(C(=O)c3ccco3)CC2)n2ncnc2n1 | -4.03
31 | Cc1cccc(N(CN2C(=O)C3C4C=CC(C5CC45)C3C2=O)C(=O)c2ccccc2)c1 (stereo not shown) | 1.61
32 | CC(=O)Nc1ccc(NC(=O)c2cccc(Cl)c2)cc1 | -5.07
33 | CC(=O)NS(=O)(=O)c1ccc(-c2ccc(/C=C3/C(=O)N(C)C(=O)C(C#N)=C3C)o2)cc1 | 5.75
34 | Cc1ccc2[nH]c3c(c2c1)CCCCC3O (stereo not shown) | 3.76
35 | O=C(N/C(=C/c1ccc2c(c1)OCO2)C(=O)N1CCCC1=O)c1ccco1 | 1.63
36 | OCCN1CCN(C2C3CC4CC(C3)CC2C4)CC1 (stereo not shown) | 1.57
37 | O=C(NCC1CCCO1)C1CCN(S(=O)(=O)c2ccc(F)cc2)CC1 (stereo not shown) | 3.47
38 | COc1ccccc1-c1cc(N)n(S(=O)(=O)c2cc(Cl)sc2Cl)n1 | 1.15
39 | O=C(CCCN1CCc2ccccc2C1)c1ccc(F)cc1 | -7.18
40 | Cc1nc(N2CCN(c3ccccn3)CC2)c2c(C)c(C(=O)NC3CCCCCC3)sc2n1 | -3.21
41 | COCCCNC(=O)C1CCCN(S(=O)(=O)c2c(C)noc2/C=C/c2cccs2)C1 (stereo not shown) | 0.0579
42 | O=C(NCc1ccccc1)c1cc(S(=O)(=O)N2CCOCC2)c(Cl)cc1Cl | -0.769

Row | Compound | % Inhibition @ 10 uM [%]
43 | Cc1nn(CC(=O)N2CCc3ccccc3C2)c(C)c1Cl | 0.883
44 | COc1cc2c(cc1OC)C(C(=O)N1CCC3(CC1)OCCO3)C(c1cccs1)N(C)C2=O (stereo not shown) | 2.59
45 | CC(=O)c1c(C)oc2ccc(N(C(C)=O)S(=O)(=O)c3ccc(C)cc3C)cc12 | -9.02
46 | O=C(NC1CCCc2ccccc21)C1CCN(c2nnc(-n3cccc3)s2)CC1 (stereo not shown) | 4.33
47 | O=C(O)c1ccccc1NC(=O)c1ccc([N+](=O)[O-])cc1[N+](=O)[O-] | -5.35
48 | Cc1noc(/C=C/c2ccco2)c1S(=O)(=O)N1CCC(C(=O)NC2CCCC(C)C2C)CC1 (stereo not shown) | -6.89
49 | CCc1cc2c(cc3c(=O)n(CC(=O)NCCc4ccc(Cl)cc4)nc(CC)n32)s1 | 1.68
50 | CCCNC(=O)Cn1c(C(=O)OC)ccc1-c1ccco1 | 1.22
51 | CCc1ccc(N2CC(C(=O)NC3CCCCC3C)CC2=O)cc1 (stereo not shown) | 0.83
52 | CCCc1ccc(OCC(O)CN2CCCCC2)cc1 (stereo not shown) | -2.15
53 | CCOc1ccc(C(C)NC(=O)c2cccs2)cc1OCC (stereo not shown) | 2.17
54 | Cc1cccc(NC(=O)C2CCN(S(=O)(=O)c3cccs3)CC2)n1 | -5.52
55 | CCOc1cc(/C=C/c2cc(C(F)(F)F)nc(O)n2)cc(Cl)c1O | 3.76
56 | COc1ccc(CNC(=O)C2CCN(S(=O)(=O)c3c[nH]cn3)CC2)cc1 | 1.23
57 | COc1ccc(C[C@H](NC(=O)OCc2ccccc2)C(=O)NCC#N)cc1 | -1.83
58 | COc1ccc(-c2noc(CNC(=O)COc3ccc(Br)c(C)c3)n2)cc1 | 3.74
59 | CCOC(=O)c1cnc2c(ccc3ccccc32)c1NCCOC(=O)c1cccs1 | 4.18
60 | COc1cc(/C=c2\sc3nc4ccccc4n3c2=O)c(Br)cc1OCC(=O)O | 13.5
61 | O=C(Nc1ccc(S(=O)(=O)N2CCCCC2)cc1)c1ccc(Br)o1 | 0.658
